In PubChem BioAssay AID651820 (National Center for Advancing Translational Sciences (NCATS), 2012):
Screen size: about 340,000 compounds; about 12,000 (3.5%) were called active. Inconclusive means that the source gave no clear call. Such entries were picked first, then a sample of the others. Calls come from the whole dose curve; as a rule, active = well fitted inhibition curve with a large enough effect; inconclusive = small, poorly fitted or top-dose-only effect, or another doubt; inactive = no such curve, though single readings can be large or run the other way. Potencies of inconclusive entries are left out as doubtful fits.

experiment: qHTS Assay for Inhibitors of Hepatitis C Virus (HCV); conditions: Huh7.5.1 HCVcc-Cre (HCVcc is cell-culture hepatitis C virus) infection, luciferase reporter, 44 h; activity change, negative = inhibition: at 41.8 µM (top of the series) unless noted
How it was run: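 Antiviral activity was scored by luciferase reporter output from cells infected with HCVcc-Cre (~0.5 moi) in presence of compound, 44 h infection period, cells seeded 1,000/well 4 h prior.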
% is set by controls: 0 for no effect and ±100 for the full control effect; potency is the fitted concentration of half-maximal effect; tags give direction and shape of the fitted curve.

| SMILES | Potency | activity change, negative = inhibition |
| --- | --- | --- |
| CCOc1c2ccc(C(=O)NCCCCc3ccccc3)cc2nn1CC | active: 3.55 µM | – |
| CCOC(=O)N1CCN(C(=O)c2ccc(S(=O)(=O)Nc3ccc(C)cc3)cc2)CC1 | inconclusive [inhibitor, partial curve] | – |
| COCCC1CCCCN1C(=O)c1cc(COc2cccc(C(C)=O)c2)on1 (stereo unspecified) | inconclusive [inhibitor, partial curve] | – |
| CC(=O)Nc1ccc(Nc2ccccc2)cc1 | inconclusive [inhibitor, single point] | – |
| C/C(=N\NC(=O)c1ccc(-c2ccccc2)cc1)c1cccc(N)c1 | inconclusive [inhibitor, full curve] | – |
| COc1ccc(NC(=O)C(=O)NCC2CCCN2S(=O)(=O)c2ccc(C)cc2)cc1 (stereo unspecified) | inconclusive [inhibitor, full curve] | – |
| O=c1c2ccccc2[nH]c(=S)n1CCc1ccccc1 | – | inactive: -15.8% |
| COc1cc(/C=C2\SC(=S)N(CCC(=O)Nc3ccccc3)C2=O)cc(OC)c1OC | – | inactive: -18.6% |
| CCN1CCN(C(=O)/C=C/c2ccc(OC)c(OC)c2)CC1 | – | inactive: 8.02% |
| COc1ccc(C(C)=O)cc1COC(=O)c1ccc(N)c([N+](=O)[O-])c1 | active: 11.2 µM | – |
| Cc1c(NC(=O)C(C)OC(=O)c2ccccc2O)c(=O)n(-c2ccccc2)n1C (stereo unspecified) | inconclusive [inhibitor, partial curve] | – |
| c1ccc2c(c1)ncn2CCCOc1ccc2c(c1)CCC2 | inconclusive [inhibitor, single point] | – |
| COc1ccccc1NC(=O)N1CCN(c2ccnc3cc(Cl)ccc23)CC1 | inconclusive [inhibitor, single point] | – |
| Cc1cc2ccccn2c1C(=O)c1nc(NCc2ccccc2)ncc1Cl | inconclusive [inhibitor, partial curve] | – |
| CCc1nc2sc3c(c2c(=O)o1)CCCC3 | – | inactive: 0.242% |
| COc1ccc(-c2coc3cc(OC4OC(CO)C(O)C(O)C4O)ccc3c2=O)cc1 (stereo unspecified) | – | inactive: 18.6% |
| COc1ccc(-c2noc(N3CCCC(C(=O)Nc4ccc(F)cc4F)C3)n2)cc1 (stereo unspecified) | inconclusive [inhibitor, single point] | – |
| Cc1csc(NC(=O)c2ccc3c(=O)n4c(nc3c2)CCCCC4)n1 | inconclusive [inhibitor, partial curve] | – |
| CCOC(=O)Cn1nc(NC(=O)c2cc(OC)cc(OC)c2)cc1C | inconclusive [inhibitor, partial curve] | – |
| Cc1cc(Br)ccc1NC(=O)CN(C)C(=O)C1=COCCO1 | – | inactive: 11.2% |
| C=C(C)COc1ccc2c(C)c(CC(=O)OC)c(=O)oc2c1C | inconclusive [inhibitor, partial curve, poor fit] | – |
| N#Cc1cnn(-c2ccccc2)c1N | inconclusive [inhibitor, partial curve, poor fit] | – |
| COc1cc2c(cc1OC)C(C)N(C(=O)c1cc3c(s1)-c1ccccc1OC3)CC2 (stereo unspecified) | active: 11.2 µM | – |
| CCCCN(CCCC)CCNC(=O)CN1C(=O)CSc2ccc(S(=O)(=O)N3CCCCC3)cc21 | inconclusive [inhibitor, single point] | – |

| SMILES | Potency | activity change, negative = inhibition |
| --- | --- | --- |
| Cc1cc(=O)oc2cc(Oc3ccc([N+](=O)[O-])cc3[N+](=O)[O-])ccc12 | inconclusive [inhibitor, single point] | – |
| Cc1c(N2C(=O)c3ccccc3C2=O)c(=O)n(-c2ccccc2)n1C | – | inactive: 14.3% |
| Cc1cc(O)c(C2=Nc3ccccc3SC(c3ccc(Cl)cc3)C2)c(=O)o1 (stereo unspecified) | inconclusive [inhibitor, full curve] | – |
| O=C(Nc1ccc2oc(=O)ccc2c1)c1cc([N+](=O)[O-])ccc1N1CCOCC1 | – | inactive: -14.9% |
| C[C@H](CO)N1C[C@H](C)[C@@H](CN(C)Cc2ccccc2)Oc2ccc(NC(=O)CCCCCC(=O)Nc3ccccc3N)cc2C1=O | inconclusive [inhibitor, partial curve] | – |
| COc1ccc(/C=C/C(=O)NC(=S)NNC(=O)c2cccnc2)cc1 | – | inactive: 9.59% |
| CCCC[C@@H]1C[C@H]1[C@@H](NC(=O)c1ccccc1)c1ccccc1C(F)(F)F | inconclusive [inhibitor, single point] | – |
| CCOc1ccc2ccccc2c1C(=O)N[C@@H]1C(=O)N2[C@@H]1SC(C)(C)[C@@H]2C(=O)O | inconclusive [inhibitor, single point] | – |
| CCN(CC)c1ccc(NC(=O)Nc2ccc(C(C)=O)cc2)cc1 | inconclusive [inhibitor, single point] | – |
| O=C(NS(=O)(=O)Oc1cccc(Cl)c1Cl)OC[C@@H]1CCCN2CCCCC12 (stereo partly specified) | – | inactive: 4.99% |
| Nc1nc(Br)c2c(F)cccc2c1-c1ccc(F)cc1 | inconclusive [inhibitor, partial curve, poor fit] | – |
| Cc1oc(-c2ccccc2F)nc1CS(=O)CC(=O)N1CCC2(CC1)OCCO2 (stereo unspecified) | – | inactive: 10.1% |
| Cn1cc(C(C[N+](=O)[O-])c2ccccc2)c2ccccc21 (stereo unspecified) | inconclusive [inhibitor, single point] | – |
| COc1ccc(CCNC(=O)c2cc(-c3ccccc3)c(N3CCOCC3)s2)cc1OC | inconclusive [inhibitor, partial curve] | – |
| Cc1c(C(=O)NCc2ccco2)oc2ccccc12 | – | inactive: 9.27% |
| CN1CCN(c2ccc(NC(=O)Cc3ccccc3)cc2)CC1 | inconclusive [inhibitor, single point] | – |
| CCCCn1c(O)c(C(CC)=Nc2ccc(OCC)cc2)c(=O)[nH]c1=O | inconclusive [inhibitor, single point] | – |
| CC(=O)c1ccc(N2CCN(C(=S)Nc3ccc(Oc4ccccc4)cc3)CC2)cc1 | active: 4.47 µM | – |
| CCOC(=O)c1sc(=N)n(-c2ccc(OC)cc2)c1C | – | inactive: -29.3% |
| CCN(CC)C(=O)c1c2c(nc3ccccc13)-c1ccccc1CC2 | inconclusive [inhibitor, full curve, poor fit] | – |
| Oc1ccccc1N1CCN(c2ncnc3sc(-c4ccccc4)cc23)CC1 | inconclusive [inhibitor, partial curve] | – |
| Cc1ccccc1-c1nc(CS(=O)(=O)CC(=O)NCCCN2C(C)CCCC2C)c(C)o1 (stereo unspecified) | inconclusive [inhibitor, single point] | – |
| Cc1ccc(C(=O)NNC(=O)c2cc(C)nc3ccccc23)cc1 | – | inactive: -5.28% |
| Cc1ccc(-c2nnc(-c3ccc(NC(=O)c4cccs4)cc3)o2)cc1 | inconclusive [inhibitor, partial curve] | – |

| SMILES | Potency | activity change, negative = inhibition |
| --- | --- | --- |
| CCCC(=O)O[C@]1(C(=O)CCl)[C@@H](C)C[C@H]2[C@@H]3CCC4=CC(=O)C=C[C@]4(C)[C@@]3(F)C(=O)C[C@@]21C | inactive | – |
| CCOc1ccc(NS(=O)(=O)c2ccc(C(=O)N3CCCC(C)C3)cc2)cc1 (stereo unspecified) | inconclusive [inhibitor, single point] | – |
| Cc1ccc(NC(=O)C(=O)c2ccc(C)cc2)cc1 | – | inactive: -2.11% |
| CCn1nccc1C(=O)Nc1ccc(C(=O)OC(C)C)cc1 | inconclusive [inhibitor, partial curve] | – |
| COc1ccccc1Nc1nc(N)nc(CSC(=S)N2CCOCC2)n1 | inconclusive [inhibitor, full curve] | – |
| O=C(Nc1cccc(S(=O)(=O)Nc2ccccc2Cl)c1)c1ccc(Cl)nc1 | inconclusive [inhibitor, single point] | – |
| CCC(CC)=NNC(=O)c1ccccc1OCc1ccc(F)cc1 | inconclusive [inhibitor, single point] | – |
| CC(=O)c1oc2ccccc2c1NC(=O)COC(=O)c1ccc(-n2nc(C)cc2C)cc1 | inconclusive [inhibitor, single point] | – |
| Cc1ccc(NC(=O)CN(C)C(=O)CSc2nc3ccccc3c(=O)n2Cc2ccco2)cc1 | inconclusive [inhibitor, single point] | – |
| CCN(CC)C(=O)c1ccc(COc2ccc(Cl)c(C)c2)o1 | inconclusive [inhibitor, single point] | – |
| O=[N+]([O-])c1ccc(Oc2ccc(S(=O)(=O)N3CCOCC3)cc2)cc1 | active: 11.2 µM | – |
| COC(=O)Nc1ccc(S(=O)(=O)N2CCCc3ccccc32)cc1 | active: 3.16 µM | – |
| CCN1CCN(CCOc2cccc(Cl)c2Cl)CC1 | inconclusive [inhibitor, single point] | – |
| Cc1cc(N)ccc1-n1c(C)ccc1C | – | inactive: 0.603% |
| O=[N+]([O-])c1ccc2c(c1)Cc1cc(O)ccc1-2 | inconclusive [inhibitor, single point] | – |
| O=C(NNc1ccnc2cc(Cl)ccc12)C1CCCCC1 | active: 2.82 µM | – |
| COc1cccc(C2=NOC(C(=O)Nc3cccnc3)C2)c1 (stereo unspecified) | – | inactive: -15.7% |
| Cc1cc(C(=O)COC(=O)c2cccc(NS(C)(=O)=O)c2)c(C)n1CC1CCCO1 (stereo unspecified) | inconclusive [inhibitor, full curve] | – |
| COCCCNC(=O)CCn1c(=O)c2ccccc2n(CC(=O)Nc2c(C)cccc2C)c1=O | inactive | – |
| C/C(=N\N1CCCCCC1)c1c(O)n(-c2ccc(C)cc2)c(=O)[nH]c1=O | – | inactive: 7.36% |
| Cc1ccc(S(=O)(=O)N2CCOCC2)cc1NC(=O)CSc1nnc(COc2ccccc2F)n1N | inconclusive [inhibitor, single point] | – |
| C/C=C/c1ccc(OCCCNC)c(OC)c1 | inconclusive [inhibitor, partial curve] | – |
| CC(C)Oc1ccc(C(=O)CCN2CCOCC2)cc1 | – | inactive: 2.64% |
